Reference: PMC6054203
No constants are given. Whether binding was seen depends on the method and setting. Sequences can lack the tags named with a protein.

Experiments:
Assay in all cases: two-hybrid; yeast strain AH109 co-transformed with AD (pGAD.GH) and BD (pGBT9.BS) fusions; growth on SC-LWH and on SC-LWH with 0.5 and 3.0 mM 3-AT
[1] = target: T1, CIPK22, two-hybrid fusion (Arabidopsis) (UniProt O80902)
T1 sequence: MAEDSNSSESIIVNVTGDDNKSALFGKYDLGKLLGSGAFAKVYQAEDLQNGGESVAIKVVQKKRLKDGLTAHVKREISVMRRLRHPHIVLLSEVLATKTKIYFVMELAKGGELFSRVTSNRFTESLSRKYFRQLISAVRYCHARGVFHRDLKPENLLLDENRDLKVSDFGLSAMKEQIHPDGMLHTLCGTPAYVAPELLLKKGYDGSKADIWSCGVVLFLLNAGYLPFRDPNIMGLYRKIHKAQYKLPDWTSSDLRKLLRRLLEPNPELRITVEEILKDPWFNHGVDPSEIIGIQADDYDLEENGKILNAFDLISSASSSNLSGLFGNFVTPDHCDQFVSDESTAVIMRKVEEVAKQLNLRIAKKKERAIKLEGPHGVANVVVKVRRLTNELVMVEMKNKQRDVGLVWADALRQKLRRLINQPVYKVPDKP

[2] = target: T2, CIPK8, two-hybrid fusion (Arabidopsis) (UniProt Q9STV4)
T2 sequence: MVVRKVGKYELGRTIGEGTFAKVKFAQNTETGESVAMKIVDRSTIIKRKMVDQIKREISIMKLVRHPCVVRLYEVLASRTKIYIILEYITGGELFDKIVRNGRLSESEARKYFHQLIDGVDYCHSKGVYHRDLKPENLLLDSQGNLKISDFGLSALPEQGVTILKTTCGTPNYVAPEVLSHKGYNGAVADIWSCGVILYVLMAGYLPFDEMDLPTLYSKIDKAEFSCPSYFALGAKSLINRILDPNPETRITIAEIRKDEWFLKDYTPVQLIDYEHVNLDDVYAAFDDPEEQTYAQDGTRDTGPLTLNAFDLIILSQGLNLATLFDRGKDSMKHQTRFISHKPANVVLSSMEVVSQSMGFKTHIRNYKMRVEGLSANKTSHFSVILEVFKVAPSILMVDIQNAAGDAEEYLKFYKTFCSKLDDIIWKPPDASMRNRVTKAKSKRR

[3] = target: T3, CIPK1, two-hybrid fusion (Arabidopsis) (UniProt Q8RWC9)
T3 sequence: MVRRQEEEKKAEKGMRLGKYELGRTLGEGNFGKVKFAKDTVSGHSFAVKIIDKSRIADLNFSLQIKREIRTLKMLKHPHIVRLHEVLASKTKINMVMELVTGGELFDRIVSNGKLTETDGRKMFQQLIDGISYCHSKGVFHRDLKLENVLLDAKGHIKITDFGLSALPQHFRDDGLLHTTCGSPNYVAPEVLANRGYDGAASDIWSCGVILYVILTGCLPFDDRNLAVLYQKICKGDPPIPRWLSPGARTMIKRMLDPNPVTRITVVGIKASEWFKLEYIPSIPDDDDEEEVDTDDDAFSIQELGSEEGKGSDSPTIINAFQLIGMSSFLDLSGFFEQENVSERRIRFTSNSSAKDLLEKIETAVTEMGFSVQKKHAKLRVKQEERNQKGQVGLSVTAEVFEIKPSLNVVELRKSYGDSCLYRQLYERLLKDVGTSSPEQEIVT

[4] = target: T4, CIPK23, two-hybrid fusion (Arabidopsis) (UniProt Q93VD3)
T4 sequence: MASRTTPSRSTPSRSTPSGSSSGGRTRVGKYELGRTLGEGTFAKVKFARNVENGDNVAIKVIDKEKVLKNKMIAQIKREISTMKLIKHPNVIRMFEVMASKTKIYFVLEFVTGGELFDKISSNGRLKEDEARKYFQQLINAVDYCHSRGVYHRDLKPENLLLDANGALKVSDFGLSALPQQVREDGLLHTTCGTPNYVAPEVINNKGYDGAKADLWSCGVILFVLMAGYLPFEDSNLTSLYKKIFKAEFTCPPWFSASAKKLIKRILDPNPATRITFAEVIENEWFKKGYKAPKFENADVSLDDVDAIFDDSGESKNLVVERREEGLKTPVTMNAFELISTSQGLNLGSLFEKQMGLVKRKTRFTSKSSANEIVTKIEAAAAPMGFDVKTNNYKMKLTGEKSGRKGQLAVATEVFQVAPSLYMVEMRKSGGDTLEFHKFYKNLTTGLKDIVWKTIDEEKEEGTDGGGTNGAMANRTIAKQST

[5] = target: T5, CIPK11, two-hybrid fusion (Arabidopsis) (UniProt O22932)
T5 sequence: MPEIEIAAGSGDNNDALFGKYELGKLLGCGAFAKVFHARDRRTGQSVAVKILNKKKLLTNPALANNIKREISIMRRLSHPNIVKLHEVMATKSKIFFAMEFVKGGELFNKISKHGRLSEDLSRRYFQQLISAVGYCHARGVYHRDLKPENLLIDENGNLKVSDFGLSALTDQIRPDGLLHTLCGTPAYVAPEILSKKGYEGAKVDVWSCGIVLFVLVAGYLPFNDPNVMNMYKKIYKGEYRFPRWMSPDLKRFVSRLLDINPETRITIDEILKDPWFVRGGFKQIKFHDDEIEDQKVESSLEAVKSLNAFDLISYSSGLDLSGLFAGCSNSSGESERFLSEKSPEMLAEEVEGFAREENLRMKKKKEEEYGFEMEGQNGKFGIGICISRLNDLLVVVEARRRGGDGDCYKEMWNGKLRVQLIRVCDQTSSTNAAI

- binding [1]: no binding
- binding [2]: no binding
- binding [3]: no binding
- binding [4]: no binding
- binding [5]: no binding
B1: AP2C1 (protein phosphatase 2C), two-hybrid fusion (enzyme, UniProt O80871 1-396)
chain: MSCSVAVCNSPVFSPSSSLFCNKSSILSSPQESLSLTLSHRKPQTSSPSSPSTTVSSPKSPFRLRFQKPPSGFAPGPLSFGSESVSASSPPGGVLKRKRPTRLDIPIGVAGFVAPISSSAAVAATPREECREVEREGDGYSVYCKRGRREAMEDRFSAITNLHGDRKQAIFGVYDGHGGVKAAEFAAKNLDKNIVEEVVGKRDESEIAEAVKHGYLATDASFLKEEDVKGGSCCVTALVNEGNLVVSNAGDCRAVMSVGGVAKALSSDHRPSRDDERKRIETTGGYVDTFHGVWRIQGSLAVSRGIGDAQLKKWVIAEPETKISRIEHDHEFLILASDGLWDKVSNQEAVDIARPLCLGTEKPLLLAACKKLVDLSASRGSSDDISVMLIPLRQFI
